# The other results are listed elsewhere or left out.
# B1: chr1:226180700:226180701:-_ENSG00000143751_ENST00000272091|hu_mus|FALSE|FALSE (ssRNA)
# RNA: GGGAGUUCUACAGUCCGACGAUCAAGUGCUCGAAGCAUAGACCCAAAACCUCCUUUCCCCCCACGAAGCCUGGGCUCCAAACUGUACACGGCUCCAUGCUGCACCUUAUCACCGGCAUUAACGAGGACUCCAUUGCACGUCACCAACAGAGGAUUGAGCAUCA
# B2: chr1:25669491:25669492:+_ENSG00000183726_ENST00000374358|perfect_dup|motif|central (ssRNA)
# RNA: GGGAGUUCUACAGUCCGACGAUCACAGGCAUGGUAUGAGUGGUUGAAAUCUUUCAUGGUGGGAUAAAUAACAGCUGCAUCGGUGAUAAUCCACCAGCCUGUAAAAAAUAGUACACCAGCAGCAAUGGAAGCAAUAGUAUUGCGCAACAGAGGAUUGAGCAUCA
# B3: chr11:120422317:120422318:-_ENSMUSG00000025130_ENSMUST00000026122|mus_mus|motif|central (ssRNA)
# RNA: GGGAGUUCUACAGUCCGACGAUCGCUGACCUGGACAGAGAUCCCUUUCCAAAAUUGAAAAGCAAAAGAAGAGACAGGUCGGAGUGUACGUGUGUCAGAUGAGUGUGGCUUCAGAAAGAUUCCCUGGGUUCUGAUGGCGCUCCCCAACAGAGGAUUGAGCAUCA
# B4: chr3:176740097:176740098:-_ENSG00000177565_ENST00000430069|hu_mus|hu_hu_hu_mus_True|1_68 (ssRNA)
# RNA: GGGAGUUCUACAGUCCGACGAUCUGUUUUGUAUACCACAAAAGGAGGCACUUUCAGUAUCUGCAAAAGGUAUUUAAUCCUAAAACAUACUCACCUAGAGGAUAACUCAGGAAAACAAUCUGUUACACUCUAAGACCUUAGGAACAACAGAGGAUUGAGCAUCA
# B5: chr18:38101097:38101098:-_ENSMUSG00000024454_ENSMUST00000043498|mus_mus|FALSE|FALSE (ssRNA)
# RNA: GGGAGUUCUACAGUCCGACGAUCGGUGCUGACAUCUGGAUGGAGUGUGAAAUCUGGGGCAAAGUACUCGAAGUAUUCACUAUAGGGAAGUUCCUCACUAAUGGCCUCUUCUACCAGCAGAGAUGUUUCAUAUGUCCAACACCGCAACAGAGGAUUGAGCAUCA
# B6: chr1:33859959:33859960:-_ENSMUSG00000042197_ENSMUST00000044455|mus_mus|FALSE|FALSE (ssRNA)
# RNA: GGGAGUUCUACAGUCCGACGAUCCCCUUUGUCAUCAGCUGACGGAGAUUUGCAGUCAGACUCCUCUUCAACUGUGGAUAAACUGUCCUCCUUAGAGCUGGAGAUAUCCCAAGGAACUGACGAGCUCUCACUUGGCCUAGAAUGCAACAGAGGAUUGAGCAUCA
# B7: chr3:31621302:31621303:+_ENSG00000163527_ENST00000295770|hu_hu|motif|central (ssRNA)
# RNA: GGGAGUUCUACAGUCCGACGAUCUAAAAUCCAAUGAAUAAGGCCAGCGGUUAUCAUCAACCCUGGGUAAACAGUACCACCGGCGGUUCUUCCUAGUGGAUACCAUGCUCUUUCAUCAAACCAAUUUAAAAAUUCAUAGAACCCCAACAGAGGAUUGAGCAUCA
# B8: chr1:107181519:107181520:-_ENSMUSG00000047496_ENSMUST00000058688|mus_hu|FALSE|FALSE (ssRNA)
# RNA: GGGAGUUCUACAGUCCGACGAUCGUGUCUUUGCAGUGCAGGUAAUGGCAAGCUCACAGGCAUCCAGUACUCACAGGUGUGUUCAUUUCUGUAUCUGUCACCGAGUCUCUUUCACCCCUUCUGCGUGAUGACAUCAAGUGGAAACAACAGAGGAUUGAGCAUCA
# B9: chr4:115894766:115894767:+_ENSMUSG00000028698_ENSMUST00000030464|mus_hu|mus_mus_mus_hu_True|38_78 (ssRNA)
# RNA: GGGAGUUCUACAGUCCGACGAUCUUCCACACGGAAAUGUACUUCGGGUUUUCCAACGCCAGUACAAAGUCCGGCCAAACUACCCGAACAGGGUCCUGUCCUCCUCUCCUACAGAACACAACAAAAUGCCCCCGAACUUUCAAGCAACAGAGGAUUGAGCAUCA
# B10: 8639371_8660485_348_CDS_ENSMUSG00000001300_ENSMUST00000001319|mouse|control|control (ssRNA)
# RNA: GGGAGUUCUACAGUCCGACGAUCCAUAUAAACUUUAUAAUAUUCAUACUGGCCAACAGUUUUAGAGUCCACUUUGGGGCAAAUAAUAUCCAAUUUGUCUCCUAUCUGUGGGUAUAGUACCAGGCCUUGUCCGGGUAGAAAUUUCAACAGAGGAUUGAGCAUCA
# B11: chr1:113244022:113244023:-_ENSG00000155366_ENST00000369637|hu_mus|FALSE|FALSE (ssRNA)
# RNA: GGGAGUUCUACAGUCCGACGAUCCCAGCCCGGUUCCCAGAGGCAGGGAGGAAGGGCCUAGCAGCCCCCACUUGGGGCUGGGAAACUCAUGCAGUCCUGGGCAGAAAGGAACCAAAAAAGAAACUGGCAGCAUGGAGUCCUACACAACAGAGGAUUGAGCAUCA
# B12: chr7:118215863:118215864:-_ENSMUSG00000005610_ENSMUST00000162415|mus_hu|motif|central (ssRNA)
# RNA: GGGAGUUCUACAGUCCGACGAUCUAUUGCAACAACUCAAGUAUUACUGAGCAAAGUGCAUUUCUACAGUAUUCAGUGUUGCGGUUCAGUUUUCUAACUUAAAACAGCCUAUGAUAACUGGCAGCAAAGAAGGUCCUUGCAAUACAACAGAGGAUUGAGCAUCA
# B13: 56591056_56591176_1091_CDS_ENSG00000188021_ENST00000338222|human|control|control (ssRNA)
# RNA: GGGAGUUCUACAGUCCGACGAUCAUUACCCCCAAACUGCUCUUGUGCGGCAUUCAGCAUCGGCUCUUGAAUGUCAGUGUACAUGCGCCGUAAAGCAUUAUAGCCACCUGGGAUGCUUUCUAGAUUGCUAAGAGCCAGGUCUUGCAACAGAGGAUUGAGCAUCA
# B14: 120167749_120168985_582_CDS_ENSMUSG00000027291_ENSMUST00000028752|mouse|control|control (ssRNA)
# RNA: GGGAGUUCUACAGUCCGACGAUCAACGCAGAUAGAAUUUUCACACCAUGCCAUGGACUUGGGCACAUCUGGCACACUAAAGUCUCCCUGCAGUUCGUGGAAUUCUCUGUCCUUCCAGAAGUACAGCUGCAGCUUCUUCCUCACCAACAGAGGAUUGAGCAUCA
# Biological target: T1, UNK ZnF1-3 (human, UniProt Q9C0B0 31-174)
# T1 sequence: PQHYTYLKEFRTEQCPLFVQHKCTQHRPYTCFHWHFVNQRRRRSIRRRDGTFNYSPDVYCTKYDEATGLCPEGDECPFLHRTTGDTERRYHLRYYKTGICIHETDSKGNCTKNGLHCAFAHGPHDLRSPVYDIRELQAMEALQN
# Assay: nsRBNS (natural sequence RNA bind-n-seq); RBNS binding buffer (assumed for nsRBNS): 25 mM Tris pH 7.5, 150 mM KCl, 3 mM MgCl2, 0.01% Triton X-100, 500 ug/ml BSA, 20 U/ml SUPERase-In, 4 C; UNK is unkempt and MSI1 is Musashi-1; names of the RNAs are library labels; protein concentration not given here; high values mean tight binding
row,Binder,binding signal
1,B1,1.28 enrichment R
2,B2,1.81 enrichment R
3,B3,1.35 enrichment R
4,B4,0.769 enrichment R
5,B5,1.57 enrichment R
6,B6,0.942 enrichment R
7,B7,1.12 enrichment R
8,B8,0.64 enrichment R
9,B9,0.798 enrichment R
10,B10,1.19 enrichment R
11,B11,1.13 enrichment R
12,B12,0.963 enrichment R
13,B13,0.829 enrichment R
14,B14,1.09 enrichment R
